# Results as given in patent US20170368082A1, “FORMULATIONS OF BRINCIDOFOVIR” (priority 2016, published 2017).
# Further values from the same series stand in other lists.
# Experiment: Tissue distribution by quantitative whole-body autoradiography (QWBA)
# Format: in vivo, male Sprague Dawley and Long-Evans rats
# Conditions: 15 mg/kg IV
# Description: The study utilized 4 groups of male SD rats (albino), and 3 groups of male LE rats (pigmented); a total of 39 rats. All animals were obtained from Hilltop Lab Animals, Inc. (Scottdale, Pa.). […] Rats in Group 5 were administered a single 2-h IV infusion of [^14C]brincidofovir at a target dose of 2 mg/kg. […] Three dosing formulations (one for high dose IV, one for low dose IV, and one for PO dose) were prepared at QPS on the day of dosing. The IV formulation for Groups 1, 2, 3, and 4 contained a vehicle of 10 mM sodium phosphate buffer in 5% dextrose solution at pH 8.0(±0.1).
# Each animal, at their respective termination time points, was euthanized for QWBA analysis immediately after blood collection. One rat per time point per Group was euthanized as listed below.
# The blood samples were maintained on wet ice (approximately 4° C.) and then centrifuged to obtain plasma within 1 h of the blood collection time. Centrifuge settings were recorded in the study notebook. Duplicate aliquots of plasma (0.050 mL) were analyzed for radioactivity using direct counting by LSC, and residual plasma was stored at approximately −70° C. and was saved for possible future analysis under a separate study protocol. Residual red blood cells were discarded as radioactive waste.
# The pinna, distal limbs, hair, and tail were removed from each frozen carcass and each frozen carcass was embedded in an aqueous suspension of approximately 2% (w/v) carboxymethylcellulose and frozen into a block. The blocks were stored at approximately −20° C. prior to sectioning. Each blocked carcass was mounted on the object stage of a cryomicrotome (Leica CM3600 Cryomacrocut, Nussloch, Germany and Vibratome 9800, St. Louis, Mo.) maintained at approximately −20° C. and internal standards (3), which were plasma fortified with [^14C]-glucose at one concentration (approximately 0.05 μCi/mL), were placed into the frozen blocks, prior to sectioning, and were used for section thickness quality control. A number of whole-body sections (approximately 40 μm thick) were taken in the sagittal plane at various levels of interest using a whole-body cryomicrotome set at −20° C. Sagittal sections (20-50 μm thick) of frozen carcasses were exposed to phosphor imaging plates. Regions of images in tissues were converted to concentrations using standards. All of the major tissues, organs, and biological fluids were represented.
# Tissue concentration data was determined for the following tissues and/or contents: adipose (brown and white), adrenal gland, bile (in duct), blood (cardiac), bone, bone marrow, brain (cerebrum, cerebellum, medulla), cecum (and contents), large intestine (and contents), epididymis, esophagus, eye (uvea and lens), Harderian gland, heart, kidney (cortex and medulla), liver, lung, lymph node, pancreas, pituitary gland, prostate gland, salivary gland, seminal vesicles, skeletal muscle, skin (pigmented and non-pigmented), small intestine (and contents), stomach (gastric mucosa and contents), spleen, spinal cord, testis, thymus, thyroid, and urinary bladder (and contents).
# The imaging plate and sections were placed in light-tight exposure cassettes, in a copper-lined lead safe, for a 4-day exposure at room temperature. […] Quantification was performed by image densitometry using MCD image analysis software (v. 7.0, Interfocus Imaging Ltd) and a standard curve constructed from the integrated response [i.e., Molecular Dynamics Counts per square millimeter (MDC/mm^2)] and the nominal concentrations of the ^14C-calibration standards. The concentrations of radioactivity were expressed as the μg equivalents of [^14C]brincidofovir per gram sample (μg equiv/g). A lower limit of quantification (LLOQ) was applied to the data (See section 6.7.4).
# Tissue concentrations that fell below the LLOQ were identified as being below the quantification limit (BQL). Tissue areas that were not visualized on autoradiographic images were identified as no sample (NS) and reported as BQL.
smiles,measurement,setting,value
CCCCCCCCCCCCCCCCOCCCOP(=O)(O)CO[C@H](CO)Cn1ccc(N)nc1=O [[^14C]brincidofovir],Concentration of radioactivity,"Epididymis, 1 h, LE rat",0.828 μg equiv/g tissue
same,Concentration of radioactivity,"Epididymis, 2 h, LE rat",1.654 μg equiv/g tissue
same,Concentration of radioactivity,"Epididymis, 4 h, LE rat",1.795 μg equiv/g tissue
same,Concentration of radioactivity,"Epididymis, 8 h, LE rat",0.821 μg equiv/g tissue
same,Concentration of radioactivity,"Epididymis, 24 h, LE rat",0.362 μg equiv/g tissue
same,Concentration of radioactivity,"Epididymis, 72 h, LE rat",0.243 μg equiv/g tissue
same,Concentration of radioactivity,"Epididymis, 96 h, LE rat",0.204 μg equiv/g tissue
same,Concentration of radioactivity,"Epididymis, 168 h, LE rat",0.129 μg equiv/g tissue
same,Concentration of radioactivity,"Epididymis, 840 h, LE rat",BQL (BQL = Value is below the LLOQ)
same,Concentration of radioactivity,"Esophagus, 1 h, LE rat",1.750 μg equiv/g tissue
same,Concentration of radioactivity,"Esophagus, 2 h, LE rat",2.456 μg equiv/g tissue
same,Concentration of radioactivity,"Esophagus, 2 h, SD rat",3.567 μg equiv./g
same,Concentration of radioactivity,"Esophagus, 4 h, LE rat",1.803 μg equiv/g tissue
same,Concentration of radioactivity,"Esophagus, 8 h, LE rat",1.747 μg equiv/g tissue
same,Concentration of radioactivity,"Esophagus, 24 h, LE rat",0.377 μg equiv/g tissue
same,Concentration of radioactivity,"Esophagus, 24 h, SD rat",0.572 μg equiv./g
same,Concentration of radioactivity,"Esophagus, 72 h, LE rat",0.357 μg equiv/g tissue
same,Concentration of radioactivity,"Esophagus, 96 h, LE rat",0.098 μg equiv/g tissue
same,Concentration of radioactivity,"Esophagus, 168 h, LE rat",0.041 μg equiv/g tissue
same,Concentration of radioactivity,"Esophagus, 168 h, SD rat",0.043 μg equiv./g
same,Concentration of radioactivity,"Esophagus, 840 h, LE rat",BQL (BQL = Value is below the LLOQ)
same,Concentration of radioactivity,"Eye (lens), 1 h, LE rat",0.039 μg equiv/g tissue
same,Concentration of radioactivity,"Eye (lens), 2 h, LE rat",0.077 μg equiv/g tissue
same,Concentration of radioactivity,"Eye (lens), 2 h, SD rat",BQL (BQL = Value is below the LLOQ)
same,Concentration of radioactivity,"Eye (lens), 4 h, LE rat",BQL (BQL = Value is below the LLOQ)
same,Concentration of radioactivity,"Eye (lens), 8 h, LE rat",BQL (BQL = Value is below the LLOQ)
same,Concentration of radioactivity,"Eye (lens), 24 h, LE rat",BQL (BQL = Value is below the LLOQ)
same,Concentration of radioactivity,"Eye (lens), 24 h, SD rat",BQL (BQL = Value is below the LLOQ)
same,Concentration of radioactivity,"Eye (lens), 72 h, LE rat",BQL (BQL = Value is below the LLOQ)
same,Concentration of radioactivity,"Eye (lens), 96 h, LE rat",BQL (BQL = Value is below the LLOQ)
same,Concentration of radioactivity,"Eye (lens), 168 h, LE rat",BQL (BQL = Value is below the LLOQ)
same,Concentration of radioactivity,"Eye (lens), 168 h, SD rat",BQL (BQL = Value is below the LLOQ)
same,Concentration of radioactivity,"Eye (lens), 840 h, LE rat",BQL (BQL = Value is below the LLOQ)
same,Concentration of radioactivity,"Eye (uveal tract), 1 h, LE rat",0.875 μg equiv/g tissue
same,Concentration of radioactivity,"Eye (uveal tract), 2 h, LE rat",1.411 μg equiv/g tissue
same,Concentration of radioactivity,"Eye (uveal tract), 2 h, SD rat",2.342 μg equiv./g
same,Concentration of radioactivity,"Eye (uveal tract), 4 h, LE rat",1.412 μg equiv/g tissue
same,Concentration of radioactivity,"Eye (uveal tract), 8 h, LE rat",0.925 μg equiv/g tissue
same,Concentration of radioactivity,"Eye (uveal tract), 24 h, LE rat",0.452 μg equiv/g tissue
same,Concentration of radioactivity,"Eye (uveal tract), 24 h, SD rat",0.469 μg equiv./g
same,Concentration of radioactivity,"Eye (uveal tract), 72 h, LE rat",0.322 μg equiv/g tissue
same,Concentration of radioactivity,"Eye (uveal tract), 96 h, LE rat",0.188 μg equiv/g tissue
same,Concentration of radioactivity,"Eye (uveal tract), 168 h, LE rat",BQL (BQL = Value is below the LLOQ)
same,Concentration of radioactivity,"Eye (uveal tract), 168 h, SD rat",0.095 μg equiv./g
same,Concentration of radioactivity,"Eye (uveal tract), 840 h, LE rat",BQL (BQL = Value is below the LLOQ)
same,Concentration of radioactivity,"Harderian Gland, 1 h, LE rat",0.897 μg equiv/g tissue
same,Concentration of radioactivity,"Harderian Gland, 2 h, LE rat",2.049 μg equiv/g tissue
same,Concentration of radioactivity,"Harderian Gland, 4 h, LE rat",1.476 μg equiv/g tissue
same,Concentration of radioactivity,"Harderian Gland, 8 h, LE rat",1.284 μg equiv/g tissue
same,Concentration of radioactivity,"Harderian Gland, 24 h, LE rat",0.665 μg equiv/g tissue
same,Concentration of radioactivity,"Harderian Gland, 72 h, LE rat",1.098 μg equiv/g tissue
same,Concentration of radioactivity,"Harderian Gland, 96 h, LE rat",0.536 μg equiv/g tissue
same,Concentration of radioactivity,"Harderian Gland, 168 h, LE rat",0.403 μg equiv/g tissue
same,Concentration of radioactivity,"Harderian Gland, 840 h, LE rat",BQL (BQL = Value is below the LLOQ)
same,Concentration of radioactivity,"Heart, 1 h, LE rat",1.190 μg equiv/g tissue
same,Concentration of radioactivity,"Heart, 2 h, LE rat",2.401 μg equiv/g tissue
same,Concentration of radioactivity,"Heart, 4 h, LE rat",0.997 μg equiv/g tissue
same,Concentration of radioactivity,"Heart, 8 h, LE rat",0.815 μg equiv/g tissue
same,Concentration of radioactivity,"Heart, 24 h, LE rat",0.226 μg equiv/g tissue
same,Concentration of radioactivity,"Heart, 72 h, LE rat",0.173 μg equiv/g tissue
same,Concentration of radioactivity,"Heart, 96 h, LE rat",0.118 μg equiv/g tissue
same,Concentration of radioactivity,"Heart, 168 h, LE rat",0.062 μg equiv/g tissue
same,Concentration of radioactivity,"Heart, 840 h, LE rat",BQL (BQL = Value is below the LLOQ)
same,Concentration of radioactivity,"Kidney Cortex, 1 h, LE rat",36.713 μg equiv/g tissue
same,Concentration of radioactivity,"Kidney Cortex, 2 h, LE rat",97.276 μg equiv/g tissue
same,Concentration of radioactivity,"Kidney Cortex, 4 h, LE rat",76.678 μg equiv/g tissue
same,Concentration of radioactivity,"Kidney Cortex, 8 h, LE rat",56.528 μg equiv/g tissue
same,Concentration of radioactivity,"Kidney Cortex, 24 h, LE rat",19.453 μg equiv/g tissue
same,Concentration of radioactivity,"Kidney Cortex, 72 h, LE rat",4.070 μg equiv/g tissue
same,Concentration of radioactivity,"Kidney Cortex, 96 h, LE rat",1.041 μg equiv/g tissue
same,Concentration of radioactivity,"Kidney Cortex, 168 h, LE rat",0.330 μg equiv/g tissue
same,Concentration of radioactivity,"Kidney Cortex, 840 h, LE rat",BQL (BQL = Value is below the LLOQ)
same,Concentration of radioactivity,"Kidney Medulla, 1 h, LE rat",8.092 μg equiv/g tissue
same,Concentration of radioactivity,"Kidney Medulla, 2 h, LE rat",26.987 μg equiv/g tissue
same,Concentration of radioactivity,"Kidney Medulla, 4 h, LE rat",25.330 μg equiv/g tissue
same,Concentration of radioactivity,"Kidney Medulla, 8 h, LE rat",22.989 μg equiv/g tissue
same,Concentration of radioactivity,"Kidney Medulla, 24 h, LE rat",7.117 μg equiv/g tissue
same,Concentration of radioactivity,"Kidney Medulla, 72 h, LE rat",1.478 μg equiv/g tissue
same,Concentration of radioactivity,"Kidney Medulla, 96 h, LE rat",0.648 μg equiv/g tissue
same,Concentration of radioactivity,"Kidney Medulla, 168 h, LE rat",0.138 μg equiv/g tissue
same,Concentration of radioactivity,"Kidney Medulla, 840 h, LE rat",BQL (BQL = Value is below the LLOQ)
same,Concentration of radioactivity,"Large Intestine (contents), 1 h, LE rat",BQL (BQL = Value is below the LLOQ)
same,Concentration of radioactivity,"Large Intestine (contents), 2 h, LE rat",2.223 μg equiv/g tissue
same,Concentration of radioactivity,"Large Intestine (contents), 2 h, SD rat",BQL (BQL = Value is below the LLOQ)
same,Concentration of radioactivity,"Large Intestine (contents), 4 h, LE rat",137.870 μg equiv/g tissue
same,Concentration of radioactivity,"Large Intestine (contents), 8 h, LE rat",235.751 μg equiv/g tissue
same,Concentration of radioactivity,"Large Intestine (contents), 24 h, LE rat",48.798 μg equiv/g tissue
same,Concentration of radioactivity,"Large Intestine (contents), 24 h, SD rat",35.809 μg equiv./g
same,Concentration of radioactivity,"Large Intestine (contents), 72 h, LE rat",3.347 μg equiv/g tissue
same,Concentration of radioactivity,"Large Intestine (contents), 96 h, LE rat",0.273 μg equiv/g tissue
same,Concentration of radioactivity,"Large Intestine (contents), 168 h, LE rat",0.103 μg equiv/g tissue
same,Concentration of radioactivity,"Large Intestine (contents), 168 h, SD rat",0.374 μg equiv./g
same,Concentration of radioactivity,"Large Intestine (contents), 840 h, LE rat",BQL (BQL = Value is below the LLOQ)
same,Concentration of radioactivity,"Large Intestine, 1 h, LE rat",1.455 μg equiv/g tissue
same,Concentration of radioactivity,"Large Intestine, 2 h, LE rat",5.497 μg equiv/g tissue
same,Concentration of radioactivity,"Large Intestine, 2 h, SD rat",3.581 μg equiv./g
same,Concentration of radioactivity,"Large Intestine, 4 h, LE rat",2.338 μg equiv/g tissue
same,Concentration of radioactivity,"Large Intestine, 8 h, LE rat",3.071 μg equiv/g tissue
same,Concentration of radioactivity,"Large Intestine, 24 h, LE rat",3.064 μg equiv/g tissue
same,Concentration of radioactivity,"Large Intestine, 24 h, SD rat",2.019 μg equiv./g
same,Concentration of radioactivity,"Large Intestine, 72 h, LE rat",0.993 μg equiv/g tissue
same,Concentration of radioactivity,"Large Intestine, 96 h, LE rat",0.545 μg equiv/g tissue
same,Concentration of radioactivity,"Large Intestine, 168 h, LE rat",0.278 μg equiv/g tissue
same,Concentration of radioactivity,"Large Intestine, 168 h, SD rat",0.129 μg equiv./g
same,Concentration of radioactivity,"Large Intestine, 840 h, LE rat",BQL (BQL = Value is below the LLOQ)
same,Concentration of radioactivity,"Liver, 1 h, LE rat",126.516 μg equiv/g tissue
same,Concentration of radioactivity,"Liver, 2 h, LE rat",229.669 μg equiv/g tissue
same,Concentration of radioactivity,"Liver, 4 h, LE rat",118.543 μg equiv/g tissue
same,Concentration of radioactivity,"Liver, 8 h, LE rat",53.166 μg equiv/g tissue
